Here are results for 87 compounds from paper PMC4336329 (PLoS ONE, 2015).

About 14,000 (4.5%) of roughly 310,000 compounds showed an effect of 50% or more. Effects have a minus sign here. The list shows a part of the results.
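Also: peak tail current of the secondary pulse compared with the same well before compound.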

Sequence of human ether-à-go-go-related gene (hERG) potassium channel (Q12809 whole entry, looked up): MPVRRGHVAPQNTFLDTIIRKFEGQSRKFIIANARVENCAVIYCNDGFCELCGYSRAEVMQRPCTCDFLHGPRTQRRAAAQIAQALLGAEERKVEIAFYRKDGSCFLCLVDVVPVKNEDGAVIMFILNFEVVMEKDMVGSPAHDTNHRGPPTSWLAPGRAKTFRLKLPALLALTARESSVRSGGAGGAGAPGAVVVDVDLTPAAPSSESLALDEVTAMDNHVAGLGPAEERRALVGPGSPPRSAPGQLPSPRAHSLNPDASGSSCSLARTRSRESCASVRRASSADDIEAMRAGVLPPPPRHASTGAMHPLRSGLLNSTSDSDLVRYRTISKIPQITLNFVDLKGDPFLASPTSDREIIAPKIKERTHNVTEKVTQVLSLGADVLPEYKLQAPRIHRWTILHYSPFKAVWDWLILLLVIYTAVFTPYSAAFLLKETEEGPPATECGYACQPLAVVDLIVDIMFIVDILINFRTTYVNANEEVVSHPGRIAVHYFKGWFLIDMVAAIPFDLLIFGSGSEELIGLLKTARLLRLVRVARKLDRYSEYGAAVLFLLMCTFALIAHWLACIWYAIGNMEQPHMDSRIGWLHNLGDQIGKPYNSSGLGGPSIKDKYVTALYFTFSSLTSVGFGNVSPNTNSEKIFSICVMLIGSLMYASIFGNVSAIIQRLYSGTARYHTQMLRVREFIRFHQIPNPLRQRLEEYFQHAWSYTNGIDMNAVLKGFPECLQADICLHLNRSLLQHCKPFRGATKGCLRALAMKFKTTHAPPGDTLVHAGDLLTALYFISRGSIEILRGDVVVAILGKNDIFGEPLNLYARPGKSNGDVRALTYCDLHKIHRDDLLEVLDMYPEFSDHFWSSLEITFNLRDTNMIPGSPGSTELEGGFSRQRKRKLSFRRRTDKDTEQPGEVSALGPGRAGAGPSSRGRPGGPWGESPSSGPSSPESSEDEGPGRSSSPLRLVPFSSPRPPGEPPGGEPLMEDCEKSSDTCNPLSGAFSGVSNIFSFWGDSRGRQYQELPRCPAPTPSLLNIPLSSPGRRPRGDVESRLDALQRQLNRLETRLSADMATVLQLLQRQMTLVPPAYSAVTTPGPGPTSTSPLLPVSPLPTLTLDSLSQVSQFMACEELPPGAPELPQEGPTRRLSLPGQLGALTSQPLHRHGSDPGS

The assay concerns the target human ether-à-go-go-related gene (hERG) potassium channel (human, UniProt Q12809). As to the kind of experiment: primary screen, population patch clamp on CHO cells stably expressing hERG.
As for `COc1ccc(NC(=O)c2cccc(N3C(=O)C4CCC(C)CC4C3=O)c2)c(OC)c1` (stereo not drawn), the “hERG current change (%, negative = inhibition) at 10uM” value was -3.5%. On to `CCC(C)c1ccccc1N=Cc1ccc2c(c1)OCO2` (stereo not drawn), for which the “hERG current change (%, negative = inhibition) at 10uM” value came to 11%. As for `O=C1OC(/C(=C\Nc2ccccc2)[N+](=O)[O-])c2ccccc21` (stereo not drawn), the “hERG current change (%, negative = inhibition) at 10uM” value came out at 9.96%. For the compound `Cl.NC1=NCc2ccccc21`, the “hERG current change (%, negative = inhibition) at 10uM” value is listed as -16%. Consider `CCN1CCN(C(=O)c2ccc(OC3CCN(CCc4ccccc4)CC3)cc2)[C@@H](C)C1=O`, for which the “hERG current change (%, negative = inhibition) at 10uM” value was -10.2%. `CCc1sc(N2C(=O)C3C4CCC(C4=C(C)C)C3C2=O)nc1-c1ccccc1` (stereo not drawn): the “hERG current change (%, negative = inhibition) at 10uM” value was -0.909%.

In the case of `Cc1csc(NC(=O)CN(C)S(=O)(=O)c2cccc3cccnc23)n1`, the “hERG current change (%, negative = inhibition) at 10uM” value is listed as -18.9%. As to `C[C@@H]1CCC[C@@]2(O[C@H](CCO)C[C@@H](O)[C@@H]2O)O1`, the “hERG current change (%, negative = inhibition) at 10uM” value is recorded as 8.68%. For the compound `Cc1csc(=Nc2ccccc2)n1CCCN1CCCC1=O`, the “hERG current change (%, negative = inhibition) at 10uM” value worked out at 3.99%. On to `COc1ccccc1NC(=S)NC1CC2CCC1C2` (stereo not drawn), for which the “hERG current change (%, negative = inhibition) at 10uM” value is on record as 5.49%. For `CC(=O)Oc1ccc(/C=N/NC(=O)C2CCCN2S(=O)(=O)c2ccc(Cl)cc2)cc1` (stereo not drawn), the “hERG current change (%, negative = inhibition) at 10uM” value was -28.1%. `Cc1ccc(C(=O)Nc2ccc(NC(=O)c3cccs3)cc2)c(C)c1`: the “hERG current change (%, negative = inhibition) at 10uM” value came out at 25.3%.

On to `CCOc1ccc(N2C(=O)CSC2c2ccncc2)cc1` (stereo not drawn), for which the “hERG current change (%, negative = inhibition) at 10uM” value was 20.6%. For the compound `CCOC(=O)N1CCN(C(=O)c2cn(C)c3ccc(S(=O)(=O)N(CC)CC)cc3c2=O)CC1`, the “hERG current change (%, negative = inhibition) at 10uM” value is on record as 17.1%. The same measure for `COc1ccc(OC)c2sc(NC(=O)c3ccc(Br)s3)nc12`: 23.1%; for `COc1cc(C)nc(OCCNC(=O)COc2ccc(Cl)cc2Cl)n1`: -20.3%; for `Cc1ccc(C)c(NC(=S)N(Cc2ccc(Cl)cc2)Cc2ccc(C(=O)O)cc2)c1`: 8.17%. As for `CCOc1ccccc1-n1c(SCC(=O)N2CCOCC2)nnc1-c1ccccn1`, the “hERG current change (%, negative = inhibition) at 10uM” value is on record as -6.7%. The same measure for `COc1ccc(N(CC(=O)Nc2ccc(Cc3ccncc3)cc2)S(=O)(=O)c2ccccc2)cc1`: 8.23%. For the compound `Cc1cccc(NC(=O)Cn2nnc(-c3cccs3)n2)c1C`, the “hERG current change (%, negative = inhibition) at 10uM” value is -1.21%. As for `COC(=O)C1N[C@@H]([C@@H](NC(=O)COc2ccccc2)C(=O)NC2CC2)SC1(C)C` (stereo partly drawn), the “hERG current change (%, negative = inhibition) at 10uM” value stood at 0.352%. On to `O=C(CN1/C(=C(/O)c2ccccc2)C(=O)c2ccccc2S1(=O)=O)c1ccccc1`, for which the “hERG current change (%, negative = inhibition) at 10uM” value amounted to 2.85%. The same measure for `COc1ccc(OC)c(Nc2c3ccccc3nc3ccccc23)c1`: -11%; for `O=C(O)/C=C/c1ccc(S(=O)(=O)Nc2ccc(OCc3ccccc3)cc2)cc1`: 24.1%; for `Cc1onc(-c2ccccc2)c1C(=O)N1CCN(Cc2ccc3c(c2)OCO3)CC1.Cl`: 17.5%. The figure for `COC(=O)C1=C(N)Oc2c(oc(CO)cc2=O)C1c1ccc(F)cc1` (stereo not drawn) is -7.85%; for `COc1cccc2cc3c(=O)n(-c4ccccc4)nc-3oc12` it is 1.89%; for `Cc1cccc(NC(=O)c2cc3ccccc3oc2=O)c1` it is 13.9%. `CCc1cc(Cn2nc(-c3ccccc3)cc2C(=O)NCc2ccc(C)cc2)on1`: the “hERG current change (%, negative = inhibition) at 10uM” value was -4.24%.

In the case of `COc1ccc(NC(=O)/C(C#N)=C/c2c(C)nn(-c3ccc(F)cc3)c2Cl)cc1Cl`, the “hERG current change (%, negative = inhibition) at 10uM” value was found to be 4.3%. Consider `Cc1ccccc1C1NC(=O)Cc2ccccc21` (stereo not drawn), for which the “hERG current change (%, negative = inhibition) at 10uM” value is listed as 7.19%. In the case of `COc1ccc(CC(=O)NNC(=O)c2ccco2)cc1OC`, the “hERG current change (%, negative = inhibition) at 10uM” value amounted to 16.4%. Take `Cc1cc(N2CCCCCC2)nc2ccccc12.O=C(O)C(=O)O`: the “hERG current change (%, negative = inhibition) at 10uM” value is reported as -56.1%. As to `CCc1ccc(CCC(=O)Nc2nnc(C)s2)o1`, the “hERG current change (%, negative = inhibition) at 10uM” value is -5.3%. The same measure for `O=C(CSCc1ccccc1F)NCc1ccc(F)cc1`: -13.5%; for `Cl.O=S(=O)(c1cccc2cnccc12)N1CCNCC1`: 16.4%.

In the case of `N#C/C(=C\c1c(N2CCOCC2)nc2ccccn2c1=O)C(=O)NC1CCS(=O)(=O)C1` (stereo not drawn), the “hERG current change (%, negative = inhibition) at 10uM” value was -1.88%.

On to `CC1CN(c2cnn(C(C)C)c(=O)c2Cl)CC(C)O1` (stereo not drawn), for which the “hERG current change (%, negative = inhibition) at 10uM” value is on record as 6.84%.

Turning to `COc1ccc2[nH]c(C)c(C(=O)CN3CCc4cc(OC)c(OC)cc4C3)c2c1`, the “hERG current change (%, negative = inhibition) at 10uM” value is on record as -24.9%.

Consider `O=C(NCC1CCN(Cc2ccccc2F)CC1)Nc1ccccc1F`, for which the “hERG current change (%, negative = inhibition) at 10uM” value is given as -22.5%. In the case of `CCOc1ccc(NC(=O)c2sc(NC(C)=O)c(C(=O)OC)c2C)cc1`, the “hERG current change (%, negative = inhibition) at 10uM” value stood at 54.6%. Regarding `CCCn1c(=O)c(Cc2ccccc2)c(O)c2ccccc21`, the “hERG current change (%, negative = inhibition) at 10uM” value was found to be 1.06%. The same measure for `COCCCNCCCOc1ccc(C)cc1Br.O=C(O)C(=O)O`: -30.7%; for `Cc1cccc(NC(=O)c2c(O)c3ccccc3n(C)c2=O)c1`: 25.8%; for `Cc1ccnc(NS(=O)(=O)c2ccc(NC(=O)c3ccc(S(=O)(=O)N4CCOCC4)cc3)cc2)n1`: 3.35%.

Turning to `COc1ccc([C@H]2CC(=O)C=C(c3ccccc3-c3ccccc3)C2)cc1`, the “hERG current change (%, negative = inhibition) at 10uM” value is reported as 1.83%. For `O=C(CS(=O)(=O)c1cn(Cc2ccccc2Cl)c2ccccc12)N1CCOCC1`, the “hERG current change (%, negative = inhibition) at 10uM” value stood at 2.64%.

With `CCOC(=O)N1CCN(C(=O)CN(c2ccccc2OC)S(=O)(=O)c2ccc(OC)cc2)CC1`, the “hERG current change (%, negative = inhibition) at 10uM” value is -3.12%. In the case of `Cc1cc(/C=C2/C(=N)N3C(=NC2=O)SN=C3S(C)(=O)=O)c(C)n1-c1ccccc1F`, the “hERG current change (%, negative = inhibition) at 10uM” value was 45.2%. For `Cc1cc(C)c2c(n1)sc1c(N3CCN(C)CC3)ncnc12`, the “hERG current change (%, negative = inhibition) at 10uM” value was -1.14%.

`COc1nccnc1NS(=O)(=O)c1ccc(NC(=S)NC(=O)c2cccc(F)c2)cc1`: the “hERG current change (%, negative = inhibition) at 10uM” value was 5.05%. As to `CCC[N+](CC#Cc1ccccc1)(CCC)CC(=O)OC`, the “hERG current change (%, negative = inhibition) at 10uM” value came out at 9.58%. The same measure for `CCCC(=O)Nc1nnc(-c2ccc3c(c2)OCCO3)o1`: -1.33%. The figure for `Cc1ccc(NC(=O)/C(=C/c2cccc([N+](=O)[O-])c2)NC(=O)C2CCCCC2)c(C)c1` is -18.7%. The figure for `O=C(NCc1ccccc1F)c1ccc2c(c1)OCCO2` is 10.3%; for `COc1cccc(CN(C)C(=O)c2ccc(N3CCCC3)c([N+](=O)[O-])c2)c1` it is -45.3%; for `COc1cccc(C(=O)N2CCN(C3CCN(Cc4ccccc4)CC3)CC2)c1OC.O=C(O)C(=O)O` it is -19.1%. Regarding `Cc1nc2oc3c(NCC4CCCO4)ncnc3c2c2c1COC(C)(C)C2` (stereo not drawn), the “hERG current change (%, negative = inhibition) at 10uM” value is recorded as -16.6%. For `CC1N(C(=O)N(C)C)CCN1S(=O)(=O)c1ccccc1` (stereo not drawn), the “hERG current change (%, negative = inhibition) at 10uM” value is given as 10.2%. The figure for `Cc1cccc(NC(=O)C2CC(=O)OC23CCCC3)c1` (stereo not drawn) is 14%; for `COc1ccc(N2CCN(C(=O)c3ccccc3Br)CC2)c([N+](=O)[O-])c1` it is -65.5%. As for `CC(C)CC(=O)NC(=S)Nc1ccc(CN2CCOCC2)cc1`, the “hERG current change (%, negative = inhibition) at 10uM” value is reported as -3.57%. Consider `Cc1ccc2nc(NC(=O)CC3Oc4ccccc4NC3=O)sc2c1` (stereo not drawn), for which the “hERG current change (%, negative = inhibition) at 10uM” value was 10.5%. `C=CCn1c(SCc2nc3ccccc3c(=O)[nH]2)nc2ccccc2c1=O`: the “hERG current change (%, negative = inhibition) at 10uM” value is -4.3%.

Turning to `COc1ccc(CNC/C=C/c2ccccc2)cc1.Cl`, the “hERG current change (%, negative = inhibition) at 10uM” value is reported as -42.2%. Consider `O=C(Nc1ccc(Cl)cc1Cl)c1ccc2c(=O)n3c(nc2c1)CCC3`, for which the “hERG current change (%, negative = inhibition) at 10uM” value is recorded as -39.8%. Turning to `O=c1ccc(/C=C/c2ccccc2)nn1Cc1ccc(F)cc1`, the “hERG current change (%, negative = inhibition) at 10uM” value came to 11.4%.

For `N#Cc1cnn(-c2nc(SCc3ccccc3)nc3sc4c(c23)CCCC4)c1N`, the “hERG current change (%, negative = inhibition) at 10uM” value is recorded as -0.501%. The same measure for `COc1ccc(C(=O)NNC2=C(C(=O)C(F)(F)F)CCC2)cc1`: 14.5%; for `CCOC(=O)C1CCN(c2c(NCCCN3CCCCC3)c(=O)c2=O)CC1`: 6.88%. `CCN(CC(=O)Nc1ccc2c(c1)OCCO2)C(=O)c1ccc(C(F)(F)F)cc1`: the “hERG current change (%, negative = inhibition) at 10uM” value is reported as -10.1%. On to `CC(=O)c1c(-c2ccc(Cl)cc2)c2ccccc2[nH]c1=O`, for which the “hERG current change (%, negative = inhibition) at 10uM” value turned out to be 11%. The same measure for `O=C(COC(=O)c1ccc(S(=O)(=O)Nc2ccccc2)cc1)NC1CCCC1`: 5.84%; for `Cc1ccccc1NC(=O)Nc1cccs1`: 13.3%; for `O=C(NCc1ccccn1)c1cc(S(=O)(=O)N2CCN(c3ccccc3)CC2)ccc1Cl`: -32.4%. Regarding `C=CCN1C(=O)/C(=C2/Sc3ccccc3N2C)SC1=Nc1ccccc1C`, the “hERG current change (%, negative = inhibition) at 10uM” value was determined as 14.6%. On to `CSc1cccc(NS(=O)(=O)c2ccc3c(c2)oc(=O)n3C)c1`, for which the “hERG current change (%, negative = inhibition) at 10uM” value is given as -4.71%.

Take `CCOC(=O)CC(=O)CSc1nc2c(c(C)c1C#N)CCC2`: the “hERG current change (%, negative = inhibition) at 10uM” value is listed as -9.57%. For the compound `COc1ccc(NC(=O)c2ccccn2)cc1`, the “hERG current change (%, negative = inhibition) at 10uM” value stood at 11.2%. On to `COc1ccc(N(C(=O)c2ccc(C)cc2)S(=O)(=O)c2cccs2)cc1`, for which the “hERG current change (%, negative = inhibition) at 10uM” value worked out at 2.84%. For the compound `O=C(COC(=O)c1ccccc1NCCO)Nc1cccc(S(=O)(=O)NC2=NCCCCC2)c1`, the “hERG current change (%, negative = inhibition) at 10uM” value is reported as -9.92%. Regarding `Cc1ccc(N(CCC#N)C(=O)CSc2nc3ccccc3c(=O)[nH]2)cc1`, the “hERG current change (%, negative = inhibition) at 10uM” value is given as -10.8%. The same measure for `CCC(=O)Nc1cccc(NC(=S)NC(=O)Cc2ccccc2)c1`: 21.1%; for `CCc1ccc(NC(=O)CSc2nnc(-c3ccccn3)n2C)cc1`: -21%.

As for `COC(=S)N/C(=N\S(=O)(=O)c1ccc(Cl)cc1)c1ccccc1`, the “hERG current change (%, negative = inhibition) at 10uM” value is 10.3%. On to `CN1CCN(c2cnn(-c3ccccc3)c(=O)c2Br)CC1`, for which the “hERG current change (%, negative = inhibition) at 10uM” value is -0.56%.

On to `COC(=O)Cc1ccc(NC(=S)NCCC(C)C)cc1`, for which the “hERG current change (%, negative = inhibition) at 10uM” value was -3.53%.
